# Laboratory results taken from PubChem BioAssay AID686970 (National Center for Advancing Translational Sciences (NCATS), 2013).
# Several values for one entry are separate records, joined by “and”; a condition that tells them apart may be missing. Identical values can stand only once. Among all 360,000 compounds or so, about 6,000 (1.7%) were called active. Inconclusive means that the source gave no clear call. Such entries were picked first, then a sample of the others. Calls follow the shape of the dose curve; as a rule, active = well fitted cell-killing curve with a large enough effect; inconclusive = small, poorly fitted or top-dose-only effect, or effect the other way; inactive = flat fitted curve, though single readings scatter. Potencies of inconclusive entries are left out as doubtful fits.
# Test: qHTS for induction of synthetic lethality in tumor cells producing 2HG: qHTS for the HT-1080-NT fibrosarcoma cell line;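 also: NT is the 2HG producing partner of a matched IDH1 knockdown line; nearly all actives have a fitted effect of over 55% in size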;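 as to activity, negative = less viability: 0% = DMSO-treated cells and -100% = media-only wells without cells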
# Conditions: HT-1080-NT fibrosarcoma viability, CellTiter-Glo ATP luminescence, 48 h; activity, negative = less viability: at 46.1 µM (top of the series)
# Procedure, shortened: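 Viability by CellTiter-Glo luminescence after 48 h compound exposure at 37C of HT-1080-NT cells (750/well, RPMI, 5% FBS). % activity scaled between DMSO wells and medium-only wells, then curve-fitted and categorized by curve class.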
# Potency is read from the fitted curve at half-maximal effect; tags tell the direction and shape of the fitted curve.
Compound,Potency,"activity, negative = less viability"
Cc1cccc(NP(=O)(Oc2ccccc2)Oc2ccccc2)c1C,"inconclusive [cytotoxic, single point]",–
COc1ccc2c(c1)c(C(=O)CN1CCC3(CC1)OCCO3)c(C)n2Cc1ccccc1,–,inconclusive: -31.1% [cytotoxic]
CCCCOc1ccc(CN2CCN(CCO)CC2)cc1,inactive,–
NS(=O)(=O)c1ccc(N=Cc2c(O)n(C3CCCCC3)c(=O)n(C3CCCCC3)c2=O)cc1,"inconclusive [cytotoxic, single point]",–
O=c1[nH]c(=O)n(-c2ccccc2F)c(O)c1/C=C1\C=Nc2ccccc21,inactive,–
CC(=O)O[C@@H]1/C=C/[C@](C)(O)C[C@@H](C)C/C=C/[C@H]2[C@H](O)C(C)=C(C)[C@H]3[C@H](Cc4ccccc4)NC(=O)[C@@]123,active: 2.59 µM,–
CCOC(=O)[C@]12Cc3c(cc(OC)c(OC)c3OC)[C@H]1N(CCC(=O)OC)C(=O)c1ccccc12,"inconclusive [cytotoxic, single point]",–
COc1cccc(C(c2nnnn2-c2ccc3c(c2)OCCO3)N2CCC(n3c(=O)[nH]c4ccccc43)CC2)c1OC (stereo not given),"inconclusive [cytotoxic, partial curve]",–
Cc1ccc2nc(-c3ccc(CN4CCC(n5c(=O)[nH]c6ccccc65)CC4)cc3)c(-c3ccccc3)nc2c1,"inconclusive [cytotoxic, partial curve]",–
C=C1C(C)C2C(Cc3ccccc3)NC(=O)C23C(OC(C)=O)C=CC(C)(O)CC(C)CC=CC3C1O (stereo not given),inactive,–
S=c1[nH]nc(C2CC2)n1Cc1ccco1,"inconclusive [cytotoxic, partial curve]",–
CCOC(=O)[C@]12Cc3cc(C)ccc3[C@H]1N(CCC(=O)OC)C(=O)c1cc(OC)ccc12,active: 23.1 µM,–
Cc1ccc(N=Nc2cc(C)ccc2N)cc1,"inconclusive [cytotoxic, partial curve, poor fit]",–
Fc1ccccc1CCNCc1cccc2ccccc12,"inconclusive [cytotoxic, single point]",–
CC(N)Cc1cn(Cc2ccccc2)c2ccccc12 (stereo not given),"inconclusive [cytotoxic, single point]",–
COC(=O)C1=C(c2cc3ccccc3s2)C[C@@H]2CC[C@H]1N2C(=O)N1CCCCC1,"inconclusive [cytotoxic, single point]",–
CC(C)(O)/C=C/C(=O)C(C)(O)C1C(O)CC2(C)C3CC=C4C(C=C(O)C(=O)C4(C)C)C3(C)C(=O)CC12C (stereo not given),active: 0.651 µM,–
CCCCCCC(=O)N/N=C/c1c(O)n(C(C)CC)c(=S)[nH]c1=O (stereo not given),"inconclusive [cytotoxic, partial curve]",–
O=C(CCCCCCCCCCC(=O)NCc1cccnc1)NCc1cccnc1,"inconclusive [cytotoxic, partial curve, poor fit]",–
O=C1OC(c2ccc(Cl)cc2)=N/C1=C\N1CC2CC(C1)c1cccc(=O)n1C2 (stereo not given),inactive,–
C[C@H]1CCC/C=C/[C@@H]2C[C@H](O)C[C@H]2[C@H](O)/C=C/C(=O)O1,active: 58 nM and active: 411 nM,–
CC(=NCc1ccc2c(c1)OCO2)c1c(O)[nH]c(=O)[nH]c1=O,"inconclusive [cytotoxic, single point]",–

Compound,Potency,"activity, negative = less viability"
CC1(C)C[C@H]2C=C(C=O)[C@]3(C=O)C[C@]3(C)[C@H]2C1,active: 16.4 µM,–
O=C1NCN(c2ccccc2)C12CCN(C(c1cccc3ccccc13)c1nnnn1Cc1ccccc1)CC2 (stereo not given),"inconclusive [cytotoxic, single point]",–
C[C@]12CCC(=O)C[C@@H]1CC[C@@H]1[C@@H]2CC[C@]2(C)[C@@H](O)CC[C@@H]12,–,inconclusive: 22.4%
Cc1ccc2c(c1)[C@@H]1CN(C)CC[C@@H]1N2C(=O)Nc1cccc(C(F)(F)F)c1,active: 12.6 µM,–
COc1cc(/C=C/c2cccc[n+]2C)ccc1OCC(=O)Nc1ccccc1C,"inconclusive [rising, partial curve, poor fit]",–
Cc1ccc(C2CC3CCC(C2)N3Cc2ccccc2F)cc1 (stereo not given),"inconclusive [cytotoxic, single point]",–
COc1ccc(CC(C)NCCC(c2ccccc2)c2ccccc2)cc1 (stereo not given),inactive,–
O=C1NCN(c2ccccc2)C12CCN(C(c1cccs1)c1nnnn1Cc1ccccc1)CC2 (stereo not given),"inconclusive [cytotoxic, single point]",–
CCOC(=O)[C@]12Cc3cc4ccccc4cc3[C@H]1N(Cc1ccccc1)C(=O)c1cc(OC)ccc12,active: 20.6 µM,–
C=CCn1c(O)c(C(=O)CCCCCC)c(=O)[nH]c1=O,"inconclusive [cytotoxic, single point]",–
Cc1ccc2c(c1)C(c1ccccc1)NCC(=O)N2 (stereo not given),inactive,–
COc1cc([C@@H]2c3cc4c(cc3[C@@H](OC)[C@H]3COC(=O)[C@H]23)OCO4)cc(OC)c1O,"inconclusive [cytotoxic, full curve]",–
N#C/C(=C\c1ccc(O)cc1)C(=O)O,"inconclusive [rising, single point]",–
C[C@]12CCC3C(CC[C@H]4C[C@@H](O)CC[C@]34C)C1CC[C@@H]2O (stereo not given in full),inactive,–
Fc1ccc(CCNCc2cccc(Cl)c2)cc1,"inconclusive [cytotoxic, single point]",–
O=NN1CCCCC1,"inconclusive [rising, full curve]",–
O=c1[nH]c(=S)n(C2CC2)c(O)c1/C=N/Nc1ccccc1,"inconclusive [cytotoxic, full curve]",–
COc1cc2cc(c1Cl)N(C)C(=O)CC(OC(=O)C(C)N(C)C(C)=O)C1(C)OC1C(C)C1CC(O)(NC(=O)O1)C(OC)C=CC=C(C)C2 (stereo not given),active: 0.0041 µM,–
CN1C[C@H](C(=O)NC2(C)OC3(O)[C@@H]4CCCN4C(=O)[C@H](Cc4ccccc4)N3C2=O)CC2c3cccc4[nH]cc(c34)C[C@H]21 (stereo not given in full),"inconclusive [cytotoxic, single point]",–
CCCC/C(C)=C/[C@@H](NP(=O)(c1ccccc1)c1ccccc1)c1ccccc1,"inconclusive [cytotoxic, single point]",–
CNC(=O)Nc1ccc(C(=O)N/N=C\C23CC[C@@H](O)CC2(O)CC[C@@H]2[C@@H]3CCC3(C)C(C4=CC(=O)OC4)CCC23O)cc1 (stereo not given in full),"inconclusive [cytotoxic, single point]",–
N#CC1c2ccccc2-n2nncc2CN1Cc1cc(Cl)cc(Cl)c1 (stereo not given),active: 8.2 µM,–

Compound,Potency,"activity, negative = less viability"
C=C1C(=O)O[C@@H]2C[C@@H](C)[C@@H]3C=CC(=O)[C@@]3(C)[C@@H](O)[C@H]12,active: 1.46 µM,–
CCc1ccc(-c2nn(Cc3ccccc3)cc2C=O)cc1,"inconclusive [cytotoxic, single point]",–
CC(C)NCC(O)c1ccc(C2CCCC2)cc1 (stereo not given),"inconclusive [cytotoxic, partial curve]",–
COc1cc(-n2c(=S)[nH]c3ccccc3c2=O)c(Cl)cc1Cl,"inconclusive [cytotoxic, single point]",–
OCC1CO1 (stereo not given),inactive,–
O=C(CCCOc1ccc(Cl)cc1Cl)N1CCC2(CC1)OCCO2,"inconclusive [cytotoxic, single point]",–
O=C1NCN(c2ccccc2)C12CCN(C(c1cccc3ccccc13)c1nnnn1C1CCCCC1)CC2 (stereo not given),–,inconclusive: -0.814%
CC(=O)[C@@]1(O)CCC2C3CC[C@H]4C[C@@H](O)CC[C@]4(C)C3CC[C@@]21C (stereo not given in full),"inconclusive [rising, single point]",–
CCOc1ccc(-c2cc(C)[n+](CCO)c(-c3ccc(OCC)cc3)c2)cc1,"inconclusive [cytotoxic, single point]",–
COc1cccc(C(C)(O)c2nc(-c3cccc(F)c3)cs2)c1 (stereo not given),"inconclusive [cytotoxic, single point]",–
CN(C)[C@@H]1C(=O)C(C(N)=O)=C(O)[C@@]2(O)C(=O)C3=C(O)c4c(O)ccc(Cl)c4[C@@](C)(O)C3C[C@@H]12 (stereo not given in full),"inconclusive [cytotoxic, partial curve]",–
O=P(Nc1ccccc1)(Nc1ccccc1)Oc1cccc(Cl)c1,"inconclusive [cytotoxic, single point]",–
CCC(=NCc1ccc2c(c1)OCO2)c1c(O)n(C2CCCCC2)c(=O)[nH]c1=O,inactive,–
CCCCc1ccc(C(=O)O)nc1,"inconclusive [rising, single point]",–
Cc1ccc(-c2cc(-c3ccc(C)cc3)[n+](-c3ccc(C(=O)O)cc3)c(-c3ccc(C)cc3)c2)cc1,"inconclusive [cytotoxic, single point]",–
COc1ccccc1CN1CCCC(C(=O)c2ccccc2SC)C1 (stereo not given),"inconclusive [cytotoxic, single point]",–
COc1cccc(CN(C)C[C@@H]2OCc3ccccc3-c3c(n(C)c4ccccc34)C(=O)N([C@@H](C)CO)C[C@H]2C)c1,"inconclusive [cytotoxic, single point]",–
OCCNc1c2c(nc3ccccc13)CCCC2,inactive,–
O=C(COc1ccccc1Cl)N1CCCC(N2CCN(c3ccc(F)cc3)CC2)C1 (stereo not given),inactive,–
Cc1c(C(=O)c2cccc3ccccc23)c2cccc3c2n1[C@H](CN1CCOCC1)CO3,active: 14.6 µM,–
O=C(NCc1ccccc1)c1cccn(Cc2ccccc2)c1=O,inactive,–
